Data on 91 molecules can be found in PubChem BioAssay AID463173 (ICCB-Longwood Screening Facility, Harvard Medical School, 2010).

Screen size: about 52,000 compounds; about 1,700 (3.3%) were called active. Cut-off read from the data, not from the text of the source: active = survival mostly below about 52% (no sharp cut-off); inactive = mostly above about 56%. This is one part of the list.

This assay has as its system Wild type. As to the kind of experiment: S. aureus survival, RN4220 and DeltatarO strains – OD600, teichoic acid synthesis inhibitors, primary screen (AID 463173). The conditions noted are these: S. aureus RN4220 wild type/DeltatarO growth, OD600, 18 h, hits give low values, screened at 18.75 µg/mL (by protocol).
On to `CC(=O)c1ccc(S(=O)(=O)Nc2cccc(-c3ccc(N4CCCCC4)nn3)c2)cc1`, for which the survival is inactive: 87%.
The figure for `Cc1ccc(CNC(=O)C2CCN(c3nc4ccccc4n(C)c3=O)CC2)cc1` is inactive: 82%.
The figure for `CCOC(=O)CSc1nc2c(sc3ccccc32)c(=O)n1CCc1ccccc1` is inactive: 75%; for `O=[N+]([O-])c1cc(-c2nc(-c3ccccc3)no2)ccc1N1CCN(c2ccccc2)CC1` it is inactive: 84%.
The result for `CCCOc1ccc(CNC(=O)C(CC)n2nc(C)c3sc4ccccc4c3c2=O)cc1` (stereo unspecified) reads inactive: 82%.
Regarding `CCOc1ccc2nc(C)cc(Nc3ccccc3OCC)c2c1`, the survival is inactive: 132%.
The figure for `Cc1ccc(Cl)cc1N1CCN(C(=O)CCC(=O)Nc2ccc3nc(N4CCC(C)CC4)cc(C)c3c2)CC1` is inactive: 83%.
The result for `Cc1ccc(C(=O)O)cc1Nc1nc2ccccc2n2nnnc12` reads inactive: 80%; that for `Cc1ccc(NC(=O)Cn2nnc(-c3nc(-c4ccncc4)no3)c2N)cc1`, inactive: 129%.
The result for `CC12CN3CC(C)(CN(C1)C3(C)CSc1c[nH]c3ccccc13)C2=O` (stereo unspecified) reads inactive: 108%; that for `O=C(OCc1nc(-c2ccccc2)oc1COC(=O)c1ccco1)c1ccco1`, inactive: 110%; that for `Nc1c(Cl)ncnc1NCCO`, inactive: 95%.
As for `COCCNC(=O)c1c(C)oc2nc(C)nc(N3CCOCC3)c12`, the survival is inactive: 81%.
On to `Cc1cccc(-c2cc3nc4c(c(N5CCN(Cc6ccc7c(c6)OCO7)CC5)n3n2)CCCC4)c1`, for which the survival is inactive: 111%.
The result for `CCOC(=O)c1cccc(NC(=O)c2ccc3c(Cl)c4c(nc3c2)CCC4)c1` reads inactive: 77%; that for `O=C(NCCCN1CCN(c2ccc(F)cc2)CC1)Nc1ccc(Cl)cc1`, inactive: 64%.
For `COc1ccc(C2c3c(-c4c(C)cc(C)cc4O)n[nH]c3C(=O)N2Cc2ccco2)cc1` (stereo unspecified), the survival is inactive: 15%.
The figure for `COc1cccc(-c2nc(CS(=O)(=O)CC(=O)NCc3ccc(C)cc3)c(C)o2)c1` is inactive: 83%; for `CCOc1cc(-c2nc3c(c(CC)nn3-c3ccccc3)c3cc(OC)c(OC)cc23)ccc1O` it is inactive: 87%.
The figure for `Cc1ccc(CN2C(=O)C(O)(c3c[nH]c4ccccc34)c3cc(Cl)ccc32)cc1` (stereo unspecified) is active: -11%; for `Cc1ccc(-c2nnc(SCc3ccccc3C#N)o2)cc1` it is inactive: 66%.
As for `CC(C)NC(=O)CCSc1ccc(Cl)cc1`, the survival is inactive: 117%.
In the case of `Cc1ccc(C)c(NC(=O)Cn2c(=O)n(Cc3ccco3)c(=O)c3oc4ccccc4c32)c1`, the survival was inactive: 87%.
The result for `Cc1ccc2c(c1)NC(c1cccnc1)=NC(c1ccc(F)cc1)=N2` reads inactive: 90%.
Consider `COc1ccc(C(=O)COC(=O)c2cccc(NC(=O)c3ccc(OC)c(OC)c3)c2)cc1`, for which the survival is inactive: 88%.
The figure for `O=C(C1CCCN(S(=O)(=O)Cc2ccccc2)C1)N1CCc2ccccc21` (stereo unspecified) is inactive: 100%; for `CCOC(=O)C(CC)n1nc(C)n2c(cc3occc32)c1=O` (stereo unspecified) it is inactive: 120%; for `Cc1cccc(OCC(=O)OCc2cc(=O)n3nc(C4CCCCC4)sc3n2)c1` it is inactive: 100%.
Turning to `Cc1ccc(CNC(=O)CCc2c(C)nn(-c3ccc(N4CCCCC4)nn3)c2C)cc1`, the survival is inactive: 92%.
The result for `Cc1csc2nc(-c3cccc(NC(=O)c4ccccc4Cl)c3)cn12` reads inactive: 120%; that for `Cc1ccc(-c2nc3ccccn3c2Nc2ccc3c(c2)OCO3)cc1`, inactive: 45%; that for `COc1ccc(C(=O)c2cn(Cc3ccc(F)cc3)c3ccc(C)cc3c2=O)cc1`, inactive: 64%.
The figure for `Cc1ccc(S(=O)(=O)NCC(c2ccc(N(C)C)cc2)N2CCOCC2)cc1` (stereo unspecified) is inactive: 65%.
The figure for `O=C(NC1CCCCCC1)C1CCN(C(=O)N2CCOc3ccccc32)CC1` is inactive: 85%.
Consider `CC(C)(C)C(=O)NC1CCN(S(=O)(=O)c2ccccc2C(=O)O)CC1`, for which the survival was inactive: 105%.
The result for `COc1cc(OC)c(N(C)C(=O)Cn2ncc3c([nH]c4ccccc43)c2=O)cc1Cl` reads inactive: 81%; that for `O=c1c2cc3c(cc2nc2sc(Nc4ccc(F)c(Cl)c4)nn12)OCO3`, inactive: 138%.
The result for `Cc1nc(C)c(-c2ccc(SCC(=O)Nc3ccc(F)c(F)c3)nn2)s1` reads inactive: 75%.
The figure for `CN(Cc1ccccc1)C(=O)C1CCN(S(=O)(=O)Cc2ccccc2)CC1` is inactive: 85%; for `COc1cc(/C=C(\C#N)c2nc3ccccc3n2C)cc(OC)c1OC` it is inactive: 71%.
As to `Cc1ccc(NC(=O)c2cc(S(=O)(=O)N3CCCC(C)C3)cn2C)c(Br)c1` (stereo unspecified), the survival is inactive: 93%.
The figure for `CCOC(=O)/C=C(\C)Nc1cc(-c2ccc(Cl)cc2)[nH]n1` is inactive: 116%.
The result for `COC(=O)C1=C(C)Nc2ncnn2C1c1ccncc1` (stereo unspecified) reads inactive: 100%.
The figure for `Cn1c(=O)c2c(-c3cccc(Br)c3)n(CCO)cc2n(C)c1=O` is inactive: 80%; for `CCOc1ccc(CNC(=O)c2cc3ccccn3n2)cc1OC` it is inactive: 91%.
For the molecule `CCN1CCN(c2oc(/C=C/c3ccccc3OC)nc2C#N)CC1`, the survival is inactive: 87%.
For `COc1cccc(NS(=O)(=O)c2ccc3[nH]cc(C(=O)N4CCCCCC4)c(=O)c3c2)c1`, the survival was inactive: 128%.
For the molecule `CCOC(=O)c1c(-c2ccc(C)cc2)csc1NC(=O)c1nc(SCC)ncc1Cl`, the survival is inactive: 78%.
On to `Cc1ccc(-n2c(=O)c3ccc(C(=O)NCc4ccccc4Cl)cc3n(Cc3ccccc3F)c2=O)cc1`, for which the survival is inactive: 80%.
The figure for `CC1CCN(CCCNC(=O)c2cc(Sc3ccc(F)cc3)nc3ccccc23)CC1` is inactive: 74%; for `CCc1ccc(CN(Cc2cn[nH]c2-c2ccc(OC)cc2)C(=O)Nc2ccc(C)c(F)c2)cc1` it is inactive: 77%.
The result for `CNC(=O)/C(C#N)=C/c1cn(CCOc2ccccc2)c2ccccc12` reads inactive: 110%; that for `Nc1cccc(-c2cn3ccsc3n2)c1`, inactive: 55%; that for `CSc1nnc(NC(=O)Cc2coc3cc(C)ccc23)s1`, inactive: 85%.
On to `O=C(NC1CC(=O)N(c2cccc(F)c2)C1)C1CC1` (stereo unspecified), for which the survival was inactive: 75%.
The result for `Cc1ccc(NC(=O)c2oc3ccccc3c2NC(=O)c2ccccc2C)cc1` reads inactive: 86%; that for `O=S(=O)(c1ccccc1)N1CCN(C2CCCCCCC2)CC1`, inactive: 108%.
The figure for `CCOC(=O)c1c(-c2ccccc2)oc2ccc(NS(=O)(=O)c3ccc(C)cc3C)cc12` is inactive: 51%.
The figure for `COc1ccc(Cn2c(=O)c3cccnc3n(Cc3cccc(OC)c3)c2=O)cc1` is inactive: 80%.
Regarding `CCN(CC)c1cc(C)c2cc(NC(=O)c3ccccc3OC)ccc2n1`, the survival is inactive: 59%.
For the molecule `Cc1cc(C)c(NC(=O)CSc2nc3nc(C)cc(C)n3n2)c(C)c1`, the survival was inactive: 126%.
With `CCOc1cc(/C=N/NC(=O)C(OC)c2ccccc2)ccc1O` (stereo unspecified), the survival is inactive: 95%.
The result for `Cc1cc(C)c(NC(=O)CSc2ccc(-c3sc(-c4ccccc4)nc3C)nn2)c(C)c1` reads inactive: 73%; that for `CCn1c(=O)c2sccc2n2c(CCCC(=O)N3CCN(c4cc(Cl)ccc4C)CC3)nnc12`, inactive: 78%.
As to `CCCCn1c(SCC(=O)NCCCOC)nc2c(sc3ccccc32)c1=O`, the survival was inactive: 133%.
The result for `COc1ccc(-c2nnc(SCC(=O)NCc3ccc(C)cc3)nc2-c2ccc(OC)c(OC)c2)cc1OC` reads inactive: 88%.
The result for `O=C(CSc1nc(-c2ccc(F)cc2)[nH]c1-c1ccccc1)NCC1CCCO1` (stereo unspecified) reads inactive: 84%; that for `N#CC(C#N)=Cc1ccc(-c2ccc3c(c2)COC3=O)o1`, inactive: 109%; that for `CCc1ccc(C(=O)c2cn(CC(=O)Nc3ccc(OC)c(OC)c3)c3ccc(C)cc3c2=O)cc1`, inactive: 80%.
The figure for `COc1ccccc1N1CCN(c2ncccc2-c2nc(-c3ccc(Cl)cc3)no2)CC1` is inactive: 81%.
Regarding `CCCCOc1cccc(C2c3c(oc4ccccc4c3=O)C(=O)N2c2ccccn2)c1` (stereo unspecified), the survival is inactive: 68%.
Regarding `CC(=O)Nc1ccc(-c2cn(CC(=O)NN)cn2)cc1`, the survival was inactive: 111%.
The result for `CCS(=O)(=O)N1CCC(n2c(C(F)(F)F)nc3cccnc32)CC1` reads inactive: 88%.
The result for `CCCC1=Nc2cc(C(=O)NC(C)c3ccccc3)ccc2Sc2ccc(C)cc21` (stereo unspecified) reads inactive: 86%.
The figure for `Cc1nn(C(=O)c2c(F)cccc2F)c(C)c1S(=O)(=O)N1CCOCC1` is inactive: 71%; for `COCCN1C(=O)c2[nH]nc(-c3ccccc3O)c2C1c1ccc(Cl)c(Cl)c1` (stereo unspecified) it is active: 3%.
For `CCOC(=O)c1ccc(CNS(=O)(=O)c2c(C)ccc3nsnc23)o1`, the survival was inactive: 105%.
The result for `O=C(CCN1N=C(c2ccccc2)CCC1=O)NCCc1ccc(Cl)cc1` reads inactive: 124%.
The figure for `O=C(NCCc1ccccc1)c1cc(S(=O)(=O)N2CCCCC2)c[nH]1` is inactive: 88%; for `CCN(CC)c1nc2n(c(=O)n1)CCO2` it is inactive: 102%.
The result for `CCOC(=O)c1cnc2c(ccc3ccccc32)c1Nc1cccc(OC)c1` reads inactive: 68%.
On to `Cc1ccc(CN(Cc2ccco2)C(=O)COc2cc(C)c(Cl)c(C)c2)cc1`, for which the survival is inactive: 89%.
The result for `COc1ccc(CCNC(=O)c2ccc3c(c2)N(Cc2ccccc2F)C(=O)c2ccccc2S3(=O)=O)cc1OC` reads inactive: 159%; that for `Cc1cc(C)c2[nH]c(=O)c(CN(Cc3ccc(F)cc3)Cc3nnnn3CC3CCCO3)cc2c1` (stereo unspecified), inactive: 103%; that for `Cc1cccc(N2CCN(C(=O)c3cc4c(=O)oc5ccccc5c4s3)CC2)c1C`, inactive: 78%.
The figure for `Cc1ccc(NC(=O)/C=C/c2ccc(C)o2)c(C)c1` is inactive: 62%.
Take `Cc1cc(C(F)F)n2nc(C(=O)Nc3c(C)cccc3C)nc2n1`: the survival is inactive: 70%.
The result for `COc1ccc(-n2c(CC3C(=O)N(C)c4ccc(C)cc43)nc3ccccc3c2=O)cc1` (stereo unspecified) reads inactive: 113%; that for `CCc1ccc(NC(=O)CN(c2ccc(OC)cc2)S(=O)(=O)c2c(C)[nH]c(=O)[nH]c2=O)cc1`, inactive: 76%.
The figure for `COc1ccc(S(=O)(=O)N2CCC(Oc3ccc(-n4cnnn4)cc3)CC2)cc1OC` is inactive: 83%; for `CCOc1ccc(C(=O)c2cn(Cc3ccccc3OC)c3ccc(F)cc3c2=O)cc1` it is inactive: 84%.
